Reference: publication PMC4336329 (PLoS ONE, 2015)
The campaign covered roughly 310,000 compounds. About 2,200 (0.71%) showed an effect of 50% or more. The effect is printed as a negative number. This is one part of the list.

What follows are compounds tested against human ether-à-go-go-related gene (hERG) potassium channel (human, UniProt Q12809) (assay: primary screen, population patch clamp on CHO cells stably expressing hERG).
Chain of human ether-à-go-go-related gene (hERG) potassium channel (Q12809 whole entry, looked up): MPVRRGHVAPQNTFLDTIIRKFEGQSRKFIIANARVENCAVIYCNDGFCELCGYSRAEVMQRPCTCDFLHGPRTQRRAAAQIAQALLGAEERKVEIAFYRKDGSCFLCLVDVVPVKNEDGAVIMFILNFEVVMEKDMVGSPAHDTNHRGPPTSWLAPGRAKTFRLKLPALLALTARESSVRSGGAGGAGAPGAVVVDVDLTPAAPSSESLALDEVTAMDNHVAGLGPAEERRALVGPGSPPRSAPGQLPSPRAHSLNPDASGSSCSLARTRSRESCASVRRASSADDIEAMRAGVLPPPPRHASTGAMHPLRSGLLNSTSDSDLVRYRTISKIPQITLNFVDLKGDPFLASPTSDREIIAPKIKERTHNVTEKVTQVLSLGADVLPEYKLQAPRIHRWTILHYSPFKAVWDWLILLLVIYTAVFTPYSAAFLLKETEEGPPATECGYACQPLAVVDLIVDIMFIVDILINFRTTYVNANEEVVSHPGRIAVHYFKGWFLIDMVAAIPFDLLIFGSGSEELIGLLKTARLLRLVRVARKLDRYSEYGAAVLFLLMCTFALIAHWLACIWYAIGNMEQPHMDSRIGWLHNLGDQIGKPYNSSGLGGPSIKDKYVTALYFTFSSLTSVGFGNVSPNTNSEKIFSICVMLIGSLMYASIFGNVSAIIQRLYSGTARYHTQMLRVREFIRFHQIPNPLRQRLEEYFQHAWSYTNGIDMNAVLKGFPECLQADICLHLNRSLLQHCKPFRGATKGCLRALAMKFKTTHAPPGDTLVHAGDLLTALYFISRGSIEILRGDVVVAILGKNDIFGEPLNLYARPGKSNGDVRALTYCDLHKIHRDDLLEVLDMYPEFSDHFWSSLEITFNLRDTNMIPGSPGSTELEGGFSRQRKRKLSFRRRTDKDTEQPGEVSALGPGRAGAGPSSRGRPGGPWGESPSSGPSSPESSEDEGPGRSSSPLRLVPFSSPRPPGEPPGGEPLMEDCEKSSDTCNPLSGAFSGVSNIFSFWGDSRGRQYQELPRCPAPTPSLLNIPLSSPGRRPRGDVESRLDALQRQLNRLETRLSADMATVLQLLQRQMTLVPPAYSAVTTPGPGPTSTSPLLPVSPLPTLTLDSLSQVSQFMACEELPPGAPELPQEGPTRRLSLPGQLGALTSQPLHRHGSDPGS

SMILES	hERG current change (%, negative = inhibition) at 1uM [%]
CCOC(=O)C1CCN(c2nc3ccccc3n2CC(=O)c2ccccc2)CC1	12.5
COc1ccc(NC(=O)NN2CCN(C)CC2)cc1OC	9.68
CCOc1ccccc1NS(=O)(=O)c1c[nH]c(C(=O)OC)c1	6.6
CC(Oc1ccc(F)cc1)C(=O)Nc1ccc(N2CCOCC2)cc1N1CCOCC1 (centres unmarked)	4.3
COC(=O)CCCNC(=O)c1ccc(OC2CCN(CCc3ccccc3)CC2)cc1	-12.7
O=c1[nH]c(=O)n(-c2ccccc2)c(O)c1/C=C1/C(c2ccccc2)=Nc2ccccc21	5.01
O=C1C=C(c2cc(Cl)cc(Cl)c2)C[C@@H](c2ccc(F)cc2)C1	16.8
O=C(CNC(=O)c1cccc(Cl)c1)NCCCSc1ccccc1	1.57
COc1ccc(CNS(=O)(=O)c2c(C)[nH]c(C)c2C(=O)N2CCCCC2)cc1	8.95
O=C(CCCN1C(=O)CCC1=O)Nc1ccccc1F	13.5
NC(=O)c1nn(-c2ccccc2)nc1NC(=O)CSc1nnnn1-c1ccc(Cl)cc1	-34.8
CCN(CC)CCCn1c2c(c(SCC(=O)Nc3ccc4c(c3)OCCO4)nc1=O)CCC2	-16.7
Brc1ccccc1Cn1c(-c2cncs2)nc2ccccc21	-2.18
Cn1c(C(=O)N2CCc3ccccc3C2)cc2c(=O)n3ccccc3nc21	1.88
O=S(=O)(c1ccc(Br)cc1)c1nc(-c2ccccc2)oc1NCc1cccnc1	5.78
Cc1cccc(C(=O)Nc2cccc(-c3ccc4nncn4n3)c2)c1	11.5
CC(=O)Nc1ccc(Nc2nc3ccccc3nc2NS(=O)(=O)c2ccccc2)cc1	8.7
CCOc1ccc(NC(=S)N2CCCC2)cc1	10
CC(=O)c1ccc(N2CCN(C(=O)C3CCN(S(=O)(=O)c4cccs4)CC3)CC2)cc1	6.67
Cc1nc2ccccc2n1CC(=O)NN	9.07
Cc1cc2[nH]c(=O)c(=O)[nH]c2cc1S(=O)(=O)NC1CCC(C)CC1 (centres unmarked)	12.9
Cc1ccc(-c2nnc(SCC(=O)N/N=C/c3ccccc3C(=O)O)n2-c2ccccc2)cc1	9.94

SMILES	hERG current change (%, negative = inhibition) at 1uM [%]
O=c1c2ccccc2ncn1-c1cccc(Br)c1	7.85
O=S(=O)(c1ccc(Cl)cc1)N1CCN(c2ccc(N3CCOCC3)nn2)CC1	-3.45
CC(C)OC(=O)CC(=O)CSc1nc2c(cc1C#N)CCC2	16.3
O=C(NCc1ccncc1)C(=O)C1C(=O)Nc2ccccc21 (centres unmarked)	-3.46
CCOC(=O)c1c(N2C(=O)C=CC2=O)sc(C)c1C	13.5
CCOC(=O)N1CCN(c2ccc(C(C)=O)cc2F)CC1	13.2
COCCNc1nc(-c2cc(C)n(CCc3ccc(OC)cc3)c2C)cs1	3.17
Cc1ccccc1N1C(=O)NC(=O)/C(=C\c2cc(Br)c(N3CCOCC3)o2)C1=O	11.6
O=C1NCCN1CCNS(=O)(=O)c1ccc2ccccc2c1	5.24
O=C(Cc1ccccc1)c1c[nH]c(C(=O)O)c1	28.5
O=C(O)/C=C/C(=O)Nc1nc(-c2ccc3ccccc3c2)cs1	11.3
Cc1cccc(NC(=O)CSCc2c(C)noc2C)c1C	18.9
O=C(c1cccc(Cl)c1)N1CCN(c2ncnc3c2cnn3-c2ccccc2)CC1	9.09
Cc1[nH]c(=O)[nH]c(=O)c1S(=O)(=O)Nc1cccc([N+](=O)[O-])c1C	11.5
Oc1c(C(Nc2ccccn2)c2cccnc2)cc(Cl)c2cccnc12 (centres unmarked)	1.75
COc1ccc(NC(=O)CCC(=O)NCCO)cc1	21.6
CCOC(=O)NC(C(Cl)(Cl)Cl)S(=O)(=O)c1ccccc1 (centres unmarked)	7.15
COc1ccc(S(=O)(=O)N2CCOC2CNC(=O)C(=O)NCc2ccc3c(c2)OCO3)cc1OC (centres unmarked)	14
O=C1CC(C(=O)NC2CCCCC2)C2(CCCCC2)O1 (centres unmarked)	2.41
O=S1(=O)CC(N2CCCCC2)C(N2CCCCC2)C1 (centres unmarked)	8.09
CS(=O)(=O)N(CC(=O)Nc1ccc2c(c1)OCO2)Cc1ccc(Cl)cc1	3.91
C/C(N)=C(/C#N)C(=O)COC(=O)c1ccccc1O	4.99
